In the supplement of paper PMC4604168 (melanoma cell lines):
The list shows a part of the results. Many values rest on one well or one pass, so single values are uncertain.

Assays:
Test in all cases: cell count relative to DMSO control; melanoma cells; higher = more viable cells
Details in all cases: library dose: low library concentration; 72 h
MZ2-MEL = system: MZ2-MEL
MeWo = system: MeWo
RPMI7951 = system: RPMI7951
RVH-421 = system: RVH-421
SkMel28 = system: SkMel28
SkMel2 = system: SkMel2
SkMel30 = system: SkMel30
SkMel5 = system: SkMel5
UACC257 = system: UACC257
UACC62 = system: UACC62
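Note: cell number obtained by counting DAPI-stained nuclei in high-throughput microscope images with image analysis software, screen run in 1,536-well plates.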

SMILES: Nc1nc(F)nc2c1ncn2[C@@H]1O[C@H](CO)[C@@H](O)[C@@H]1O [fludarabine] + O=C(CCCCCCC(=O)Nc1ccccc1)NO [vorinostat] (first compound 0.2 µM, partner dose 0.08 µM)
- cell count (MZ2-MEL): 100%
- cell count (MeWo): 29.1%
- cell count (RPMI7951): 103%
- cell count (RVH-421): 101%
- cell count (SkMel28): 55.9%
- cell count (SkMel2): 5.66%
- cell count (SkMel30): 14.2%
- cell count (SkMel5): 39.6%
- cell count (UACC257): 73.1%
- cell count (UACC62): 83%

SMILES: CC(=O)O[C@@]12CO[C@@H]1C[C@H](O)[C@@]1(C)C(=O)[C@H](O)C3=C(C)[C@@H](OC(=O)[C@H](O)[C@@H](NC(=O)OC(C)(C)C)c4ccccc4)C[C@@](O)([C@@H](OC(=O)c4ccccc4)[C@H]21)C3(C)C [Docetaxel] + Cc1cc(N2CCOCC2)cc2[nH]c(-c3c(NC[C@@H](O)c4cccc(Cl)c4)cc[nH]c3=O)nc12 [BMS536924] (first compound 0.0001 µM, partner dose 0.2 µM)
- cell count (MZ2-MEL): 40.1%
- cell count (MeWo): 44.4%
- cell count (RPMI7951): 42.9%
- cell count (RVH-421): 67.7%
- cell count (SkMel28): 30.9%
- cell count (SkMel2): 49.8%
- cell count (SkMel30): 25.5%
- cell count (SkMel5): 63.3%
- cell count (UACC257): 42%
- cell count (UACC62): 34.1%

SMILES: Nc1ccn([C@@H]2O[C@H](CO)[C@@H](O)C2(F)F)c(=O)n1 [gemcitabine] + Cc1cc([N+](=O)[O-])ccc1NS(=O)(=O)c1cc(Cl)ccc1Cl [FH535] (first compound 0.0004 µM, partner dose 1 µM)
- cell count (MZ2-MEL): 94.2%
- cell count (MeWo): 96.3%
- cell count (RPMI7951): 93.9%
- cell count (RVH-421): 102%
- cell count (SkMel28): 102%
- cell count (SkMel2): 94%
- cell count (SkMel30): 94.4%
- cell count (SkMel5): 103%
- cell count (UACC257): 89.3%
- cell count (UACC62): 109%

SMILES: CC(=O)c1c(C)c2cnc(Nc3ccc(N4CCNCC4)cn3)nc2n(C2CCCC2)c1=O [palbociclib] + CCc1ccc(CCOc2ccc(CC3SC(=O)NC3=O)cc2)nc1 [pioglitazone] (first compound 0.04 µM, partner dose 2 µM)
- cell count (MZ2-MEL): 92.1%
- cell count (MeWo): 82.8%
- cell count (RPMI7951): 79.4%
- cell count (RVH-421): 91.6%
- cell count (SkMel28): 67.4%
- cell count (SkMel2): 81%
- cell count (SkMel30): 69.6%
- cell count (SkMel5): 71%
- cell count (UACC257): 77.5%
- cell count (UACC62): 80.3%

SMILES: Nc1nc(F)nc2c1ncn2[C@@H]1O[C@H](CO)[C@@H](O)[C@@H]1O [fludarabine] + Cn1cc(/C=C2\C(=O)Nc3cccnc32)c2ccccc21 [GW441756] (first compound 0.2 µM, partner dose 0.4 µM)
- cell count (MZ2-MEL): 98.3%
- cell count (MeWo): 33.5%
- cell count (RPMI7951): 110%
- cell count (RVH-421): 165%
- cell count (SkMel28): 79.1%
- cell count (SkMel2): 8.43%
- cell count (SkMel30): 27.7%
- cell count (SkMel5): 59.5%
- cell count (UACC257): 76%
- cell count (UACC62): 83%

SMILES: Nc1ncn([C@H]2C[C@H](O)[C@@H](CO)O2)c(=O)n1 [decitabine] + COC(=O)c1sccc1S(=O)(=O)Nc1ccc(Nc2ccccc2)cc1OC [GSK0660] (first compound 0.1 µM, partner dose 1 µM)
- cell count (MZ2-MEL): 93.6%
- cell count (MeWo): 88.7%
- cell count (RPMI7951): 86.1%
- cell count (RVH-421): 78.2%
- cell count (SkMel28): 65.5%
- cell count (SkMel2): 103%
- cell count (SkMel30): 92.7%
- cell count (SkMel5): 105%
- cell count (UACC257): 106%
- cell count (UACC62): 77.6%

SMILES: Nc1nc(F)nc2c1ncn2[C@@H]1O[C@H](CO)[C@@H](O)[C@@H]1O [fludarabine] + Cc1cc(N2CCOCC2)cc2[nH]c(-c3c(NC[C@@H](O)c4cccc(Cl)c4)cc[nH]c3=O)nc12 [BMS536924] (first compound 0.2 µM, partner dose 0.2 µM)
- cell count (MZ2-MEL): 110%
- cell count (MeWo): 27.9%
- cell count (RPMI7951): 112%
- cell count (RVH-421): 91.8%
- cell count (SkMel28): 68.6%
- cell count (SkMel2): 2.74%
- cell count (SkMel30): 11.8%
- cell count (SkMel5): 39.4%
- cell count (UACC257): 88%
- cell count (UACC62): 81.7%

SMILES: CC(=O)O[C@@]12CO[C@@H]1C[C@H](O)[C@@]1(C)C(=O)[C@H](O)C3=C(C)[C@@H](OC(=O)[C@H](O)[C@@H](NC(=O)OC(C)(C)C)c4ccccc4)C[C@@](O)([C@@H](OC(=O)c4ccccc4)[C@H]21)C3(C)C [Docetaxel] + CN(C)S(=O)(=O)c1ccc2c(c1)/C(=C/c1cc3c([nH]1)CCCC3)C(=O)N2 [SU6656] (first compound 0.0001 µM, partner dose 0.4 µM)
- cell count (MZ2-MEL): 43.9%
- cell count (MeWo): 34.1%
- cell count (RPMI7951): 26.5%
- cell count (RVH-421): 66.5%
- cell count (SkMel28): 36.8%
- cell count (SkMel2): 41.4%
- cell count (SkMel30): 31.5%
- cell count (SkMel5): 85.7%
- cell count (UACC257): 36.4%
- cell count (UACC62): 47.4%

SMILES: CC(=O)c1c(C)c2cnc(Nc3ccc(N4CCNCC4)cn3)nc2n(C2CCCC2)c1=O [palbociclib] + COc1cc2c(Oc3ccc4[nH]c(C)cc4c3F)ncnc2cc1OCCCN1CCCC1 [cediranib] (first compound 0.04 µM, partner dose 0.4 µM)
- cell count (MZ2-MEL): 80.8%
- cell count (MeWo): 85.2%
- cell count (RPMI7951): 89.4%
- cell count (RVH-421): 89.3%
- cell count (SkMel28): 67.7%
- cell count (SkMel2): 79.6%
- cell count (SkMel30): 90.7%
- cell count (SkMel5): 66.5%
- cell count (UACC257): 72.6%
- cell count (UACC62): 80.7%

SMILES: Nc1nc(F)nc2c1ncn2[C@@H]1O[C@H](CO)[C@@H](O)[C@@H]1O [fludarabine] + CC(C)CCN1c2nc(Nc3cc(F)c(O)c(F)c3)ncc2N(C)C(=O)C1C [BID1870] (first compound 0.2 µM, partner dose 0.2 µM)
- cell count (MZ2-MEL): 109%
- cell count (MeWo): 47%
- cell count (RPMI7951): 92.6%
- cell count (RVH-421): 101%
- cell count (SkMel28): 76.4%
- cell count (SkMel2): 9.77%
- cell count (SkMel30): 19.8%
- cell count (SkMel5): 60.1%
- cell count (UACC257): 89.6%
- cell count (UACC62): 74.4%
